# Reference: article PMC4336329 (PLoS ONE, 2015)
# About 2,200 (0.71%) of roughly 310,000 compounds showed an effect of 50% or more. The effect is printed as a negative number. The list shows a part of the results.
# Target: human ether-à-go-go-related gene (hERG) potassium channel (human, UniProt Q12809)
# Experiment: primary screen, population patch clamp on CHO cells stably expressing hERG
# human ether-à-go-go-related gene (hERG) potassium channel, sequence (Q12809 whole entry, looked up): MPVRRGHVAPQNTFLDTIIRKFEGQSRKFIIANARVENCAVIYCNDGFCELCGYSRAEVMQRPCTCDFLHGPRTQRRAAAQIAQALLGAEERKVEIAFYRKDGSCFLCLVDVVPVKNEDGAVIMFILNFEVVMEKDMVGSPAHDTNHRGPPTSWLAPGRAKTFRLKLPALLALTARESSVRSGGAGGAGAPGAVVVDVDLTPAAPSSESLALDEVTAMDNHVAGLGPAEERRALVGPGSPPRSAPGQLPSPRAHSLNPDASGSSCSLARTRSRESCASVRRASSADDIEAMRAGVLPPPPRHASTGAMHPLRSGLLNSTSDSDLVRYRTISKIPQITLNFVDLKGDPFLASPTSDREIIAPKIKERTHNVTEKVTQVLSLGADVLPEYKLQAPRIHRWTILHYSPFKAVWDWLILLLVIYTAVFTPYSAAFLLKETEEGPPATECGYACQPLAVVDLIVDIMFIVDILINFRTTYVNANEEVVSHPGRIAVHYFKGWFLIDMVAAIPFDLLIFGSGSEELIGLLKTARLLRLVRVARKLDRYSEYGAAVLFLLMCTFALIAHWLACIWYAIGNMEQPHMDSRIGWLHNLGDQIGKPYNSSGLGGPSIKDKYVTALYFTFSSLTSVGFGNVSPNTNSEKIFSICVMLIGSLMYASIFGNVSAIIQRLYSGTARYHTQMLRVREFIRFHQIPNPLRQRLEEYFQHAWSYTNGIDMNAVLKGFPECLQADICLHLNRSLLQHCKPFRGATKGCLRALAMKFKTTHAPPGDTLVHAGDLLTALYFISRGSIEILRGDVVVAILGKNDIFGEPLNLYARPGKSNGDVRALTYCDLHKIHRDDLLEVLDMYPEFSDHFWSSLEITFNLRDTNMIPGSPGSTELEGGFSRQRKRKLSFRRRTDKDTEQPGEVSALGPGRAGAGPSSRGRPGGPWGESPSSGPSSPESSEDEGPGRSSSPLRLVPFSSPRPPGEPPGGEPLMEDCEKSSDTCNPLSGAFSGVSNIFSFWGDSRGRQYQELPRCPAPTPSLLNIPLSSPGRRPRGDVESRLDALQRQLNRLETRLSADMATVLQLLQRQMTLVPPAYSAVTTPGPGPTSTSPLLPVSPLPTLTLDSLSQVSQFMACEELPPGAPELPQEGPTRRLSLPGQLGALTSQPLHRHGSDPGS
row,SMILES,"hERG current change (%, negative = inhibition) at 1uM [%]"
1,O=C(Nc1ccccc1F)c1ccc2c(c1)OCO2,15.2
2,CC(NC(=O)c1ccccc1OC(F)F)c1ccc(-n2ccnc2)cc1 (centres unmarked),-12.5
3,CCCc1nnc(NC(=O)CCC(=O)N2CCN(C3CCCC3)CC2)s1,14.4
4,CC1Sc2ccc(S(=O)(=O)N3CCC(C(=O)N(C)Cc4ccccc4)CC3)cc2NC1=O (centres unmarked),13.2
5,COc1ccccc1N1CCN(CCc2ccccc2)CC1,-17.5
6,Cc1ccc(S(=O)(=O)N(C)c2ccc(C(=O)Nc3ccccc3C(=O)N3CCOCC3)cc2)cc1,15.1
7,Cc1c(CC(=O)NCC(=O)O)c(=O)oc2cc3oc4c(c3cc12)CCCC4,18.4
8,O=C(CN1CCC(NC(=O)c2ccco2)CC1)Nc1ccccc1[N+](=O)[O-],-2.96
9,CCc1ccc(CN2CCC(Oc3ccc(C(=O)N4CCCC4)cc3)CC2)cc1,-77.5
10,CCOC(C(=O)OCC(O)CN(CC)CC)(c1ccccc1)c1ccccc1.Cl (centres unmarked),7.76
11,CC(C)(C)c1nn(-c2ccccc2)c2[nH]c(=O)c(CNCc3ccco3)cc12,3.85
12,COc1ccc(-c2noc(C3CCCN(C(=O)Nc4ccccc4F)C3)n2)cc1 (centres unmarked),16.6
13,CC(=O)NC1CC2CCCC(C1)N2 (centres unmarked),14
14,COc1ccc2c(c1)[nH]c1c(=O)n(CCCn3ccnc3)cnc12,-6.25
15,N#Cc1ccccc1NS(=O)(=O)c1cc2c3c(c1)CCC(=O)N3CCC2,14.2
16,CN(CC(=O)Nc1ccc(N2CCOCC2)cc1)C(=O)CSc1ccccc1F,12.9
17,FC(F)(F)c1cnc(Oc2ccccc2-c2nnc(-c3ccc(Cl)cc3)o2)c(Cl)c1,2.47
18,O=C(NC1CCCC1)C1CCN(c2cnccn2)CC1,20.6
19,COc1ccc(C(C)=O)cc1Cn1nc(C)c([N+](=O)[O-])c1C,15.9
20,Cc1ccc(C(=O)NCCNC(=O)c2cccnc2)cc1,12.9
21,O=C(CCn1cnc2ccccc2c1=O)Nc1cccc(Cl)c1Cl,18.2
22,Brc1ccc(C2=CC(c3ccco3)n3ncnc3N2)cc1 (centres unmarked),8.63

row,SMILES,"hERG current change (%, negative = inhibition) at 1uM [%]"
1,O=C(c1ccc(Cl)cc1)C1CCCN(Cc2cccc3ncccc23)C1 (centres unmarked),-8.07
2,O=C(NCCCCCCCCCNC(=O)C(F)(F)F)C(F)(F)F,-4.14
3,CSc1ncccc1C(=O)NC1CCCCCCC1,10.2
4,O=C(CSc1n[nH]c(-c2cccnc2)n1)Nc1ccc(Br)cc1,9.74
5,CCN(CC)c1nc(-c2ccccc2)nc2ccccc12.Cl,5.38
6,Cn1c(=O)n(CCCOc2ccc(Br)cc2)c2ccccc21,17.1
7,COc1ccc(NC(=O)CSc2nc(N)c3cc4c(nc3n2)CCCC4)cc1,5.92
8,O=C(Nc1ccc(Oc2cccnc2)cc1)C1CCCCN1Cc1ccc(CO)o1 (centres unmarked),2.32
9,O=C(O)c1cccnc1Sc1ccc(Br)cc1,12.8
10,COc1ccc(CNCC(O)(c2ccccc2)c2ccccc2)cc1OC,-8.24
11,Br.N=C1c2ccccc2CN1NC(=O)c1cccc(S(=O)(=O)N2CCCC2)c1,6.6
12,COc1ccc(OC)c2c(C)cc(N3CCCCCC3)nc12,9.03
13,CCN(CC)C(=O)CN(c1cccc([N+](=O)[O-])c1)S(=O)(=O)c1ccccc1,-2.93
14,CC1CN(C(=O)c2cc3cc(Cl)cc(Cl)c3oc2=O)CC(C)O1 (centres unmarked),3.75
15,COCCCN(Cc1ccccn1)S(=O)(=O)Cc1ccccc1,5.78
16,COc1ccc(/C=N/NC(=O)Cn2cnc3c2c(=O)n(C)c(=O)n3C)c(OC)c1OC,8.56
17,O=S(=O)(NCc1ccccc1)[C@@H]1CC2C=CC1C2 (some centres unmarked),7.63
18,CCOC(=O)c1c(C)n(C)c2ccc(OC(=O)c3ccc([N+](=O)[O-])cc3)cc12,11.2
19,Cc1cc(NC(=O)CSc2nnc(C)n2-c2ccccc2)no1,14.6
20,Nc1nc(NCc2ccco2)nc(N2CCCC2)c1[N+](=O)[O-],4.06
21,CCNc1ccc(S(=O)(=O)N(C)C)cc1NCC(=O)Nc1ccc(Br)cc1F,-6.42
22,O=C(C1=NN[C@@H]2C(=O)N(Cc3ccccc3)C(=O)[C@H]12)c1ccc(F)cc1,6.21
